Test results published in PubChem BioAssay AID485281 (National Center for Advancing Translational Sciences (NCATS), 2010).
Hit rate of the full screen: of about 350,000 compounds, about 260 (0.074%) were called active. This list was built around the results that the source calls inconclusive (neither active nor inactive); the mix of calls is not that of the screen. The call rests on the fitted dose curve; in most records, active means well fitted inhibition curve with a large enough effect; inconclusive means small, poorly fitted or top-dose-only effect; inactive means no such curve, though single readings can be large or run the other way. Potencies of inconclusive entries are doubtful fits and often do not repeat.

Molecular target: Ferritin light chain (Equus caballus) (UniProt P02791)
Assay: qHTS Assay for Identification of Novel General Anesthetics; further: nearly all actives have a fitted effect of over 20% in size
Conditions: apoferritin/1-aminoanthracene competitive binding, fluorescence; activity change, negative = displacement: at 77.5 µM (top of the series)
Procedure, shortened: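 Concentration-response curves derived by four-parameter Hill fitting of normalized fluorescence, where compounds displaced 1-AMA from 10 uM horse apoferritin following a brief 10 min room-temperature incubation; propofol titration acted as positive control.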
On the % scale 0 is the no-effect control and ±100 the full control effect; potency means the concentration at half of the fitted maximal effect; tags describe the fitted curve by direction and shape.

Sequence of UniProt P02791 (P02791 whole entry, looked up): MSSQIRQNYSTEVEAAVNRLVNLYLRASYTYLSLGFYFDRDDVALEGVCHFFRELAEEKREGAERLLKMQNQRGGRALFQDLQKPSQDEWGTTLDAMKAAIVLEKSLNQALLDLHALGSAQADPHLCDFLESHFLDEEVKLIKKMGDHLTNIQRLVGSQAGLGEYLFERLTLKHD

SMILES	Potency	activity change, negative = displacement
CC(CNC(=O)C1CCN(Cc2cc3ccccc3n2Cc2ccccc2)CC1)c1ccccc1 (stereo unspecified)	inactive	–
c1ccc2c(c1)oc1c(NCc3ccc4c(c3)OCO4)ncnc12	inactive	–
COc1ccccc1N1CCN(S(=O)(=O)c2cn(C)c(=O)n(C)c2=O)CC1	inactive	–
COc1ccccc1/C=C1\SC(=O)N(CCC(=O)N2CCCCC2CCO)C1=O (stereo unspecified)	inconclusive: 20 µM [inhibitor, partial curve]	–
CC(C)(C)c1ccc(NC(=O)Nc2ccc(OCC(=O)N3CCOCC3)cc2)cc1	inconclusive: 25.1 µM [inhibitor, partial curve]	–
O=C(CSc1nc2ccccc2[nH]1)c1ccco1	inconclusive: 56.2 µM [inhibitor, single point]	–
Nc1ccc(Nc2ccccc2)cc1	inconclusive: 15.8 µM [inhibitor, partial curve]	–
COc1cc2nc(NC(=O)c3ccc(F)cc3Cl)sc(=O)c2cc1OC	inactive	–
CC(=O)Oc1oc(-c2ccccc2)nc1/C=N/c1ccccn1	inactive	–
COc1cc(C=O)c(Br)cc1OC1CCCC1	inconclusive: 20 µM [inhibitor, partial curve]	–
COCCNc1nc(N)c([N+](=O)[O-])c(NCC2CCCO2)n1 (stereo unspecified)	inactive	–
O=C(NCCc1ccccc1)/C(=N\O)c1ccccc1	inactive	–
Cc1nccn1-c1c([N+](=O)[O-])c(=O)n(C)c2ccccc12	inactive	–
CN1CCN(c2ccc(Cl)cc2NC(=O)c2ccc([N+](=O)[O-])cc2)CC1	inactive	–
O=C(CSc1ncnc2c1oc1ccccc12)Nc1cccc(C(F)(F)F)c1	inactive	–
O=S(=O)(NCCc1ccccc1)c1cnc(Cl)c(Br)c1	inconclusive: 22.4 µM [inhibitor, partial curve]	–
Cc1ccc(C2NC(=O)Cc3ccccc32)cc1 (stereo unspecified)	inconclusive: 50.1 µM [inhibitor, single point]	–
CCOC(=O)CNc1c(-c2ccccc2)nc2ccc(Cl)cn12	inconclusive: 100 µM [inhibitor, partial curve]	–
Cc1noc(C)c1-c1ccc2ncnc(NCc3ccccc3)c2c1	inactive	–
COc1ccc(Br)cc1CNC(=O)c1ccc2c(c1)nc1n2CCCCC1	inactive	–
COc1ccc(NS(=O)(=O)c2ccc(NS(=O)(=O)c3ccc4c(c3)OCCO4)cc2)cc1	inconclusive: 14.1 µM [inhibitor, partial curve]	–
Cc1occc1-c1nnc(-c2cc([N+](=O)[O-])cc([N+](=O)[O-])c2)o1	active: 22.4 µM	–
Cc1cc(C)cc(OCc2nnc(SCC(=O)OC(C)C)o2)c1	inconclusive: 5.62 µM [inhibitor, partial curve]	–

SMILES	Potency	activity change, negative = displacement
CC1=C(C#N)C(/C=N/OCc2ccc(Cl)cc2)CC(=O)N1 (stereo unspecified)	inconclusive: 28.2 µM [inhibitor, partial curve]	–
COC(=O)c1ccccc1NC(=O)COc1ccccc1	inconclusive: 56.2 µM [inhibitor, single point]	–
COc1ccc(N(CC(=O)NCc2ccc(C)cc2)S(=O)(=O)c2c(C)[nH]c(=O)[nH]c2=O)cc1	inactive	–
Cc1c(C(=O)NCc2ccccc2Cl)sc2nc3n(c(=O)c12)CCC3	inconclusive: 5.62 µM [inhibitor, single point]	–
Cc1ccc(NCC(=O)N/N=C\c2ccc([N+](=O)[O-])o2)cc1	inconclusive: 22.4 µM [inhibitor, partial curve]	–
Cc1cc(C(=O)OCC(=O)c2ccc(Br)s2)c(C)o1	inconclusive: 28.2 µM [inhibitor, partial curve]	–
O=C(COc1ccccc1)N(Cc1cc2ccccc2[nH]c1=O)CC1CCCO1 (stereo unspecified)	inconclusive: 35.5 µM [inhibitor, partial curve]	–
Cc1csc(-c2coc3cc(O)cc(C)c3c2=O)n1	inconclusive: 31.6 µM [inhibitor, single point]	–
COC(=O)C1=C(c2ccccc2)c2ccccc2S(=O)(=O)N1CC(=O)Nc1ccccc1C(F)(F)F	inconclusive: 12.6 µM [inhibitor, partial curve]	–
COc1ccc(CSc2nc3ccccc3[nH]2)cc1	inconclusive: 15.8 µM [inhibitor, partial curve]	–
CC(C(=O)Nc1ccccc1C(F)(F)F)n1nc(-c2ccccc2)c2c(c1=O)CCCC2 (stereo unspecified)	inconclusive: 25.1 µM [inhibitor, partial curve, poor fit]	–
Cn1c(=O)n(Cc2ccccc2F)c2ccccc21	inconclusive: 39.8 µM [inhibitor, single point]	–
C#CC(C)OC(=O)c1nnc2c3ccccc3n(COC)c2n1 (stereo unspecified)	–	inactive: -7.75% [at 15.3 µM]
CC(C)CC(=O)Nc1c(C(=O)N2CCN(c3ccccc3F)CC2)oc2ccccc12	inactive	–
CCN(CC)c1ccc(C(=O)NCc2ccc3c(c2)CCN3C(C)=O)cc1	inconclusive: 15.8 µM [inhibitor, partial curve]	–
COc1ccccc1/C=N/OCC(=O)NCc1ccc2c(c1)OCO2	inconclusive: 39.8 µM [inhibitor, partial curve]	–
Cc1cccc(C)c1N1CCN(c2ccc3nnc(C(F)(F)F)n3n2)CC1	inconclusive: 8.91 µM [inhibitor, full curve]	–
COc1ccc(NC(=O)c2ccco2)cc1NC(=O)COc1ccc(C)cc1C	inconclusive: 12.6 µM [inhibitor, partial curve]	–
O=C(Nc1ccc2c(c1)OCO2)c1ccc2nc[nH]c2c1	inactive	–
O=C(Nc1nnc(SCc2ccc(F)cc2)s1)c1ccccn1	inconclusive: 31.6 µM [inhibitor, partial curve]	–
CCCOc1ccc(C(=O)C(CN2CCCC2)c2ccccc2)cc1 (stereo unspecified)	inconclusive: 14.1 µM [inhibitor, partial curve]	–
O=C(NC(=S)Nc1ccccc1)c1cc(-c2ccccc2)nc2ccccc12	inconclusive: 17.8 µM [inhibitor, partial curve]	–
COc1ccc(/C=N/Nc2ccccc2)cc1Cn1nc(C)c([N+](=O)[O-])c1C	inconclusive: 50.1 µM [inhibitor, partial curve]	–
